Reference: patent publication EP0383837B1, “ALVEOLAR SURFACTANT PROTEINS” (Byk Gulden Lomberg Chemische Fabrik GmbH, priority 1987, dated 1998)
Not every detail of the peptide structures is certain; ends, links or a residue may be inferred. Some compounds share one wording; it may come from a single statement. Where a SMILES comes first, the peptide text is derived from it. Where no end group is shown, it is not given here.

Key:
[1] = in vitro assay for ASP activity: phospholipid film spreading / surface tension (surface pressure) at an air-water interface; details: for activity in vitro (phospholipid film spreading, decreasing the surface tension of an air-water interface): result in words, synthetic peptides formulated with phospholipid (DPPC:PG, palmitate in Example 6)
[2] = tested on: premature rabbit lungs; assay: in vivo assay for ASP activity: inspiratory pressure and compliance in ventilated premature rabbits after endotracheal surfactant; details: for effectiveness in vivo (premature rabbit lungs): result in words, compared with surfactant control

Compound	activity in vitro (phospholipid film spreading, decreasing the surface tension of an air-water interface) [1]	effectiveness in vivo (premature rabbit lungs) [2]	other results
CC[C@H](C)[C@H](NC(=O)[C@H](CC(C)C)NC(=O)[C@H](CC(C)C)NC(=O)[C@H](CCCNC(=N)N)NC(=O)[C@H](CCCCN)NC(=O)[C@H](CC(C)C)NC(=O)[C@H](Cc1c[nH]cn1)NC(=O)[C@@H](NC(=O)[C@@H]1CCCN1C(=O)[C@H](CS)NC(=O)[C@@H](N)CS)C(C)C)C(=O)N[C@H](C(=O)N[C@H](C(=O)N[C@H](C(=O)N[C@H](C(=O)N[C@H](C(=O)N[C@H](C(=O)N[C@@H](CC(C)C)C(=O)N[C@H](C(=O)N[C@H](C(=O)N[C@H](C(=O)N[C@H](C(=O)N[C@H](C(=O)N[C@H](C(=O)NCC(=O)N[C@@H](C)C(=O)N[C@@H](CC(C)C)C(=O)N[C@@H](CC(C)C)C(=O)N[C@@H](CCSC)C(=O)NCC(=O)N[C@@H](CC(C)C)C(=O)N[C@@H](Cc1c[nH]cn1)C(=O)O)C(C)C)[C@@H](C)CC)C(C)C)C(C)C)C(C)C)[C@@H](C)CC)C(C)C)C(C)C)C(C)C)C(C)C)C(C)C)C(C)C [hSP-5(28-59)] (H-CCPVHLKRLLIVVVVVVLIVVVIVGALLMGLH-OH)			initial rate of spreading ([1]; formulated with DPPC:PG and palmitate as in the control experiment, Figure 12): identical to that observed with the natural peptide
KRLLIVVVVVVLIVVVIVGALLMGLHMSQKHTEMVLEMSIG [Peptide 34-74, hSP-5(34-74)]	ineffective	ineffective	
GSASSAQKAKRLLIVVVVVVLIVVVIVGALLMGLH [D5K#3, S^26 A^27 S^28 S^29 A^30 Q^31 K^32, A^33-hSP-5(25-59)]	full activity		
FGIASSAVHLKRLLIVVVVVVLIVVVIVGALLMGLH [D5K#2, A^27 S^28 S^29 A^30-hSP-5(24-59)]	full activity		
CC[C@H](C)[C@H](NC(=O)[C@H](CC(C)C)NC(=O)[C@H](CC(C)C)NC(=O)[C@H](CCCNC(=N)N)NC(=O)[C@H](CCCCN)NC(=O)[C@H](CC(C)C)NC(=O)[C@H](Cc1c[nH]cn1)NC(=O)[C@@H](NC(=O)[C@@H]1CCCN1)C(C)C)C(=O)N[C@H](C(=O)N[C@H](C(=O)N[C@H](C(=O)N[C@H](C(=O)N[C@H](C(=O)N[C@H](C(=O)N[C@@H](CC(C)C)C(=O)N[C@H](C(=O)N[C@H](C(=O)N[C@H](C(=O)N[C@H](C(=O)N[C@H](C(=O)N[C@H](C(=O)NCC(=O)N[C@@H](C)C(=O)N[C@@H](CC(C)C)C(=O)N[C@@H](CC(C)C)C(=O)N[C@@H](CCSC)C(=O)NCC(=O)N[C@@H](CC(C)C)C(=O)N[C@@H](Cc1c[nH]cn1)C(=O)O)C(C)C)[C@@H](C)CC)C(C)C)C(C)C)C(C)C)[C@@H](C)CC)C(C)C)C(C)C)C(C)C)C(C)C)C(C)C)C(C)C [hSP-5(30-59)]	reduced activity		
FGIPSSPVHLKRLLIVVVVVVLIVVVIVGALLMGLH [D5K#1, S^28 S^29-hSP-5(24-59)]	full activity	active	activity in vitro, recombinantly produced peptide ([1]; recombinant peptide, 7 parts DPPC:3 parts POPG, 20 parts phospholipid mixture:1 part protein by weight): highly active; effectiveness in vivo, recombinantly produced peptide ([2]; recombinant peptide, compared with purified rabbit surfactant): at least as effective as purified rabbit surfactant; CTOT at 30 minutes ([2]; synthetic D5K#1 study): 0.486±0.3; Pins at 30 minutes ([2]; synthetic D5K#1 study, n = 4, mean ± SD): 18.0±0.7 (SD) cm of H2O
